The values below come from PubChem BioAssay (NCI).

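Interpolation was linear, between the two tested concentrations surrounding the appropriate level; five concentrations were tested over 48 hours in 96-well plates. Abbreviation: GI50, concentration required for 50% inhibition of growth. The concentration for full growth arrest is given as TGI.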 Square brackets hold non-standard residues; d marks the D form. Peptide text beside a SMILES is read from it. * marks the point of attachment. ξ: configuration not given here. ξD = NC(CC(=O)O)C(=O)O; Ac3c = NC1(C(=O)O)CC1; Boc = CC(C)(C)OC(=O)*; OBn = c1ccc(CO*)cc1

For this test, the system named is NCI-H322M lung. As to the kind of experiment: growth of human tumour cells (NCI), 48 h.
Consider `NS(=O)(=O)c1ccc(C2C3=C(CCCC3=O)OC3=C2C(=O)c2ccccc2C3=O)cc1` (stereo unspecified), for which the GI50 is 1.64 µM and the TGI was 3.5 µM. Turning to `O=c1[nH]c(=O)n(COCc2ccccc2)c2ccc([N+](=O)[O-])cc12`, the TGI was greater than 100 µM. Same read-out and setting: for `O=c1c2ccccc2n2nnc3ccc(NCCCNCCNCCCNc4ccc5nnn6c7ccccc7c(=O)c4c56)c1c32` the value was greater than 47.4 µM; for `Cn1c(-c2ccc[se]2)ccc1-c1ccc(CO)[se]1`, greater than 100 µM; for `O=C1CSC2=NCC3(NN12)c1ccccc1-c1ccccc13`, greater than 10 µM.

On to `O=C(Nc1ncc(Cc2ccccc2)s1)c1ccc2c(c1)OCCCO2`, for which the GI50 was greater than 39.4 µM and the TGI was greater than 100 µM.

On to `C[C@]12CC/C(=N\N)C[C@@H]1CC[C@@H]1[C@@H]2CC[C@]2(C)/C(=N/N)CC[C@@H]12`, for which the GI50 is greater than 100 µM and the TGI was greater than 100 µM. For the compound `CCN(CC)CCOc1ccc(Nc2ncc3cc(-c4c(Cl)cccc4Cl)c(=O)n(CCOC)c3n2)cc1`, the GI50 was 0.126 µM and the TGI came to 6.41 µM. For `N#Cc1cccc(C(=O)c2cnn(-c3ccc(F)cc3)c2N)c1` the same measures were greater than 25 µM and greater than 25 µM. In the case of `CCN(CC)c1ccc(N=C2C=CC(=O)c3ncccc32)c(C)c1`, the TGI came out at 30.4 µM.

Take `COC(=O)c1nc(-c2ccc3c(n2)C(=O)C(N)=C(OC)C3=O)c(N)c(-c2ccc(OC)c(OC)c2O)c1C`: the TGI worked out at 2.5 µM. The same measure, in the same setting: the figure for `O=C(/C=C/c1ccc(-c2ccccc2)cc1)NCc1ccc(C(=O)NCCc2c[nH]c3ccccc23)cc1` is greater than 100 µM; for `COc1ccc(/C=C(\C(=C/c2ccc(OC)cc2)[N+](=O)[O-])[N+](=O)[O-])cc1` it is 31.8 µM.

The compound `C=CCN(c1cc(OCc2ccccc2)c(NC(C)=O)cc1[N+](=O)[O-])S(C)(=O)=O` showed a TGI greater than 100 µM.

As for `COc1ccc(Nc2ncccc2/C=C/C(=O)c2cc(OC)c(OC)c(OC)c2)cc1`, the GI50 was 2.13 µM and the TGI amounted to 6.74 µM. Taken in the same sequence, the figures for `c1cc(C2CCCCC2)ccc1OCCCCCCN1CCNCC1` were 1.83 µM and 3.46 µM. As for `Nc1ccc(N=Nc2ccccc2)c(N)n1`, the GI50 was 37.7 µM and the TGI was greater than 100 µM.

Consider `O=Nc1c(-c2cccc([N+](=O)[O-])c2)nc2cnccn12`, for which the TGI was found to be 66.4 µM. Consider `O=C(NNc1cn[nH]c(=O)c1Cl)/C(=C/c1ccc2c(c1)OCO2)NC(=O)c1ccccc1`, for which the TGI was greater than 100 µM. The same measure, in the same setting: the figure for `C1#Cc2ccccc2OCCOc2ccccc2C#Cc2ccccc2OCCOc2ccccc21` is greater than 100 µM. For `NC1CCCCC1N.O=C([O-])P(=O)([O-])[O-].[Na+].[Pt+4]` (stereo unspecified), the GI50 is greater than 100 µM and the TGI was greater than 100 µM. The compound `O=C(Nc1nnc(-c2ccccc2)o1)C(SC(=S)N1CCOCC1)c1ccccc1` (stereo unspecified) returned a TGI of 62.9 µM. `CCOC(=O)/C(C#N)=C/c1ccc(CO)o1`: the TGI was greater than 100 µM. Still for that read-out and setting: the figure for `CC1CC[C@@]2(OC1)O[C@H]1C[C@H]3[C@@H]4CC[C@H]5C[C@@H](OC6OC(CO)C(OC7OC(CO)C(OC8OC(CO)C(O)C(OC9OC(C)C(OC%10OC(C)C(O)C(O)C%10O)C(O)C9O)C8OC8OCC(O)C(O)C8O)C(O)C7O)C(O)C6O)CC[C@]5(C)[C@H]4CC(=O)[C@]3(C)[C@H]1[C@@H]2C` (stereo partly specified) is 36.1 µM; for `Oc1ccc2occ3c2c1CCC3` it is greater than 100 µM. `COc1ccc(-c2nsc3c2NC(=O)CC3c2ccc3c(c2)OCO3)cc1` (stereo unspecified): the GI50 was 15.8 µM and the TGI was greater than 100 µM. For the compound `CCCCCCCCCCCCCC[P+](CCCCCC)(CCCCCC)CCCCCC`, the GI50 was 0.288 µM. With `Cc1ccccc1S(=O)(=O)N1[C@H](c2ccc(Cl)cc2)C(C(=O)N[C@@H](Cc2ccccc2)C(N)=O)=C[C@@H]1C(C)(C)C`, the GI50 is 10.5 µM and the TGI came to 22.9 µM.

`CC1=C(SCc2ccccc2)C(=O)c2ccccc2C1=O` returned a TGI greater than 100 µM. On the same count and under the same terms, the figure for `Cc1ccc(S(=O)(=O)NC(=O)NCCC(=O)O)cc1` is greater than 100 µM; for `S=C1C(=Nc2ccccc2)N(c2ccccc2)/C(=N\c2ccccn2)N1c1ccccc1` it is 30.5 µM.

For the compound `CC(=O)NC1=C(C)C(=O)c2c(nc3n2CCC3O)C1=O` (stereo unspecified), the TGI is greater than 100 µM. As to `COc1ccc(Oc2nc3ccc(C(F)(F)F)cc3nc2-c2ccccc2)cc1`, the TGI is greater than 100 µM. Still for that read-out and setting: for `C[N+](C)([O-])CCCNc1c2ccccc2nc2cccc([N+](=O)[O-])c12` the value was 2.79 µM. As for `O=C1c2ccccc2-c2c1c1ccc([N+](=O)[O-])cc1c(=O)n2CCNCCCNCCn1c2c(c3ccc([N+](=O)[O-])cc3c1=O)C(=O)c1ccccc1-2`, the GI50 was 0.172 µM and the TGI is 22.4 µM. For `C=C1C(=O)O[C@H]2[C@H]1CC/C(CNS(=O)(=O)c1ccc3ccccc3c1)=C\CC[C@@]1(C)O[C@@H]21` the same measures were 13.9 µM and 27.6 µM. Taken in the same sequence, the figures for `CC/C=C\C/C=C\C[C@H](O)C/C=C1/C(=O)C=C[C@H]1C/C=C\CCC(=O)OC` were greater than 8.25 µM and greater than 8.25 µM. `COC(=O)c1ccccc1C#CCCCOS(C)(=O)=O` yielded a TGI greater than 10 µM. On to `COc1ccc2c(c1)nc1n2C(N)=Nc2ccccc2S1`, for which the TGI was greater than 100 µM. On the same count and under the same terms, the figure for `Cc1nccn1S(=O)(=O)c1ccc(Br)cc1Br` is greater than 100 µM. Take `OCc1cccc(-c2ccc3ncc(-c4nc(NC5CC5)ncc4F)n3c2)c1`: the GI50 was 0.294 µM and the TGI came to 1.33 µM. Turning to `C[C@H](CC[C@@H](O)C(C)(C)O)[C@H]1CC[C@@]2(C)[C@@H]3CC=C4[C@@H](CC[C@H](O)C4(C)C)[C@]3(C)C(=O)C[C@]12C`, the TGI was greater than 50 µM.

For the compound `CN(C)/C=C/c1nnnn1-c1ccc(Cl)cc1`, the GI50 was 28.2 µM and the TGI was found to be 76.9 µM. The compound `N#CC(C#N)=Cc1c(O)ccc2ccccc12` came in with a TGI of 31.2 µM. On to `CCOC(=O)c1c2c(n3ccc(NC(=O)OC(C)(C)C)cc13)C(=O)c1ncccc1C2=O`, for which the GI50 was 0.0296 µM and the TGI worked out at 1.68 µM.

The compound `CC(=O)O[C@H]1CC[C@@]2(C)C(CC[C@]3(C)C2CC[C@]2(C)Oc4c(C)cc(O)cc4C[C@@H]23)C1(C)C` (stereo partly specified) showed a TGI of 22.5 µM.

For the compound `Cc1nc2cncc(C#Cc3cncc(C(=O)Nc4ccc(CN5CCN(C)CC5)c(C(F)(F)F)c4)c3)c2nc1C`, the GI50 is 0.324 µM and the TGI worked out at 6.32 µM.

Consider `Nc1c(C(=O)c2cccc(-c3ccc[n+]([O-])c3)c2)cnn1-c1ccc(F)cc1F`, for which the GI50 was greater than 25 µM and the TGI was greater than 25 µM.

Consider `CS(=O)(=O)OCCN1CCN(C(=O)c2cccc3c(Nc4ccc(S(N)(=O)=O)cc4)c4ccccc4nc23)CC1`, for which the TGI is greater than 100 µM. In the case of `Cn1cc(NC(=O)c2cc(NC(=O)Nc3cc(C(=O)Nc4cc(C(=O)NCCC(=N)N)n(C)c4)n(C)c3)cn2C)cc1C(=O)NCCC(=N)N`, the TGI was greater than 100 µM. Regarding `CC(C)(C)OC(=O)NC(Cc1ccc(O)cn1)C(N)=O` (stereo unspecified), the TGI is greater than 100 µM.

Take `O=c1[nH]c2cc3cccnc3c(Cl)c2nc1C(F)(F)F`: the TGI was greater than 100 µM. `Cc1ccc(NC(=S)Nc2c(C)n(C)n(-c3ccccc3)c2=O)cc1` registered a TGI greater than 100 µM. Still for that read-out and setting: the figure for `COC(=O)C1(NC(=O)C(CC(=O)OCc2ccccc2)NC(=O)OC(C)(C)C)CC1` (stereo unspecified) (Boc-[ξD](OBn)-[Ac3c]-OMe) is greater than 100 µM; for `Oc1ccc2c(c1)CC[N+]1=C2CCC2CCCC21` (stereo unspecified) it is greater than 100 µM. The same measure, in the same setting: for `O=C1c2ccccc2C(=O)c2c1ccc1c2N=C(c2ccc(F)cc2)CC(c2ccc(Cl)c(Cl)c2)N1` (stereo unspecified) the value was 66 µM; for `Cc1ccc(C)c(COCCOCn2cc(Br)c(N)nc2=O)c1`, greater than 100 µM; for `COC(=O)/C=C\C(C#N)(C#N)N=Cc1ccc(C)s1`, 29.4 µM. As to `C[C@@H]1COCCN1c1nc(-c2cnc(N)cc2C(F)F)nc(N2[C@H](C)COC[C@@H]2C)n1`, the GI50 is 0.399 µM and the TGI turned out to be 14.1 µM. Taken in the same sequence, the figures for `O=C1c2ccccc2-c2nccc3cc(Cl)nc1c23` were greater than 33.9 µM and greater than 100 µM. Taken in the same sequence, the figures for `Nc1ccccc1NC(=O)CCCCCCC(=O)Nc1ccc2c(c1)/C(=C/c1ccc[nH]1)C(=O)N2` were 6.72 µM and greater than 100 µM. Taken in the same sequence, the figures for `N#Cc1c2ccccc2c2n1-c1ccccc1OC(c1ccccc1)C2=O` (stereo unspecified) were 18.2 µM and greater than 100 µM. Consider `COc1cc(C(=O)/C=C/c2c(-c3ccc(F)cc3)nc3sc(C)cn23)cc(OC)c1OC`, for which the GI50 was 8.65 µM and the TGI is greater than 100 µM. `S=c1nc2[nH]c3ccc(Br)cc3c2n[nH]1`: the TGI was greater than 100 µM.

`CCNC(=O)/C=C/CCC#Cc1ccc(-c2ccc(-c3cccs3)s2)s1` displayed a TGI greater than 100 µM. Same read-out and setting: for `Cc1cn(CC2=NCCCN2)c(=O)[nH]c1=O` the value was greater than 100 µM; for `CCOC(=O)C(NC(=O)CC(C)C)(Nc1ccc(C(F)(F)F)cc1)C(F)(F)F` (stereo unspecified), greater than 100 µM; for `COc1ccccc1/C=C1\CCC(CNc2ccc(Cl)cc2)C1=O` (stereo unspecified), 27.6 µM. Take `CC1=C(C(=O)Nc2ccc3[nH]ncc3c2)C(c2ccc(F)cc2)NC(=O)N1` (stereo unspecified): the GI50 is greater than 25 µM and the TGI was greater than 25 µM. For `COc1ccc(C[C@H](N)C(=O)N2C[C@H](CO)C[C@H](n3ccc(=O)[nH]c3=O)C2)cc1`, the TGI was greater than 100 µM. On the same count and under the same terms, the figure for `C=C(C)C(=O)OC1CC2(C)OC2CC(OC(C)=O)/C(C)=C/C2OC(=O)C(=C)C21` (stereo unspecified) is 32.5 µM; for `C=CC(C)(C)N[C@@H](C(=O)N1CCC[C@H]1c1nc(-c2nc(C(=O)OCC=C(C)C)c(C)o2)c(C)o1)C(C)C` it is 70 µM; for `O=C(c1ccccc1)c1c(C(F)(F)F)n([O-])c2cc(Cl)c(Cl)cc2[n+]1=O` it is 9.09 µM.

Regarding `COc1cc([C@@H]2c3cc4c(cc3C(Br)[C@H]3COC(=O)[C@H]23)OCO4)cc(OC)c1OC` (stereo partly specified), the GI50 is 0.552 µM and the TGI was greater than 100 µM.

Regarding `Nc1ccc(-c2nc3ccccc3[nH]2)c(O)c1`, the GI50 is 15.3 µM and the TGI was 70.8 µM. Compound `Cc1cc(=O)n2nc(CSc3nnc(N)s3)sc2n1` gave a TGI greater than 100 µM. On to `COc1cc2c(cc1OCCCOC1=C=C=C(c3ccc4c(c3)c3cc(-c5ccc(OCCCOc6cc7c(cc6OC)C(=O)N6CCC[C@H]6C=N7)cc5)ccc3n4S(=O)(=O)c3ccc(C)cc3)C=C1)N=C[C@@H]1CCCN1C2=O`, for which the GI50 was 7.55 µM and the TGI was 15 µM. For `O=C(O)CNS(=O)(=O)c1ccc(NC(=O)c2ccc(F)cc2)cc1`, the TGI is greater than 100 µM.
